In article PMC4336329 (PLoS ONE, 2015):
The campaign covered roughly 310,000 compounds. About 2,200 (0.71%) showed an effect of 50% or more. The effect is printed as a negative number. Some of the results follow.

Each compound was assayed against human ether-à-go-go-related gene (hERG) potassium channel (human, UniProt Q12809) (assay: primary screen, population patch clamp on CHO cells stably expressing hERG).
human ether-à-go-go-related gene (hERG) potassium channel, sequence (Q12809 whole entry, looked up): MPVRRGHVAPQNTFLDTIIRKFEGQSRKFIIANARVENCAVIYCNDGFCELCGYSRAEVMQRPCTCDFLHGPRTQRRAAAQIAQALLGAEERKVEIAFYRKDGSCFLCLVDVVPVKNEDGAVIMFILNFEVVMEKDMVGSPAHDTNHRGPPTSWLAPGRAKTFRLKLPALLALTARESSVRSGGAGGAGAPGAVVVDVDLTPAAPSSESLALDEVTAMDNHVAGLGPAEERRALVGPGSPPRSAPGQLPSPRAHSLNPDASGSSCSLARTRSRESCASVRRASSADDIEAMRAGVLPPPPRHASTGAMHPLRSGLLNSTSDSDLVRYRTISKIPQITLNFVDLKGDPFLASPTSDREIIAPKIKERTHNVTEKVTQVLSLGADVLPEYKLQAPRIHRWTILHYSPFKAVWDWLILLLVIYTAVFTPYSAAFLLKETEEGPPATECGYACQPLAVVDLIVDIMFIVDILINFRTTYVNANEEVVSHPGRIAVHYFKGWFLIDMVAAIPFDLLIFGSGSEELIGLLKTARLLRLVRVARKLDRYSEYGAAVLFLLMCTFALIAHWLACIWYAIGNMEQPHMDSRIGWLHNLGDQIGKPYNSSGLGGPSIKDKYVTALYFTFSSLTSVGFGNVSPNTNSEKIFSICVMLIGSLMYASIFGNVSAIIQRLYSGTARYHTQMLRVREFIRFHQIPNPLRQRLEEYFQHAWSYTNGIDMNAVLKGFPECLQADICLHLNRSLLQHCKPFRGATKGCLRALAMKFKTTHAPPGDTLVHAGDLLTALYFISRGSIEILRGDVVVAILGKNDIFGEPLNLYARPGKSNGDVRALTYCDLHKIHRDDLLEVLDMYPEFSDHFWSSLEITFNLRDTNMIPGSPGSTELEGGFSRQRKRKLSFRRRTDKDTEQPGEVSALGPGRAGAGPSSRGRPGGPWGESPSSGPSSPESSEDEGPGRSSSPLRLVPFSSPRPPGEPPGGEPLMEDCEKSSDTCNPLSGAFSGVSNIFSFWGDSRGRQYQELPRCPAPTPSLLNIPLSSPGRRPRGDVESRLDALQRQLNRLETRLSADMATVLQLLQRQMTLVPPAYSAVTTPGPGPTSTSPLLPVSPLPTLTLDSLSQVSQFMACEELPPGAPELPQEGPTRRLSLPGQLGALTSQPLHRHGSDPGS

Structure (SMILES)	hERG current change (%, negative = inhibition) at 1uM [%]
O=C(NCC(=O)N1CCN(S(=O)(=O)c2ccccc2F)CC1)c1ccc2ccccc2c1	7.24
CCCC1Nc2ccc(C(=O)O)cc2C2C=CCC12 (centres unmarked)	10.3
CC(C)n1cc(CNC(=O)C2CCC(=O)N(Cc3ccccc3F)C2)cn1 (centres unmarked)	16.8
CCC(=O)N1CCN(c2ccc(NC(=S)NC(=O)c3cccc([N+](=O)[O-])c3)cc2)CC1	3.45
O=C(c1cc2n(n1)C(C(F)(F)F)CC(c1ccco1)N2)N1CCN(c2ccccn2)CC1 (centres unmarked)	5.81
CN(C)S(=O)(=O)c1cccc(NC(=O)CO/N=C(\N)c2ccccc2)c1	12.7
O=C1CC(c2ccco2)CC(O)=C1C=Nc1cc(Cl)cc(Cl)c1 (centres unmarked)	-5.4
COC(=O)c1ccccc1NC(=O)CN1CCOCC1	5.34
O=C(Cc1ccccc1)Nc1cccc(N2CCCC2)c1	-5.67
Cc1ccc2nc(-c3ccccc3)oc(=O)c2c1	12.8
COc1cccc(N=c2oc3ccc(OC)cc3cc2-c2nc3ccccc3[nH]2)c1	17.9
CCC(C)c1ccc(NC(=S)NCCn2cc(Br)cn2)cc1 (centres unmarked)	9.71
CCCCNC(=S)Nc1ccc(OC)nc1	7.83
Clc1cccc(Cc2nn[nH]n2)c1	17.5
COc1ccc(CCC(=O)N2CCC3(CC2)OCCO3)cc1	-5.44
CC(C)(C)c1ccc(C(=O)Nc2sc3c(c2C(=O)O)CCC3)cc1	11.5
CC(C)(CO)NS(=O)(=O)c1ccc2c(c1)oc(=O)c1cc(S(=O)(=O)NC(C)(C)CO)ccc12	3.06
CCn1c(SCC#N)nc2c(c1=O)C1(CCCC1)Cc1ccccc1-2	-4.86
Clc1ccc(-c2cc(-c3ccccn3)on2)c(Cl)c1	10.5

Structure (SMILES)	hERG current change (%, negative = inhibition) at 1uM [%]
COc1ccccc1NC(=S)N=Nc1c(O)[nH]c2ccc(Br)cc12	8.37
Cc1cc2c(cc1C)-c1nnnn1C(C)(C)C2	17.2
C=CCNC(=O)CSc1nc2scc(-c3ccco3)c2c(=O)n1CC=C	-4.06
Cc1ccc(CNC(=O)c2ccc(NC3=NC4CS(=O)(=O)CC4S3)cc2)cc1 (centres unmarked)	2.79
O=C(O)c1cc(Cl)c(Cl)cc1C(=O)Nc1cccnc1	12.6
O=C(O)CCc1ccc(-c2cccs2)n1-c1ccc(C(=O)O)cc1	12.4
Cc1cc(C)cc(-n2ncc3c2CCCC3NC(=O)c2cc(C)n(C)n2)c1 (centres unmarked)	11.2
O=C(O)c1cccc(Cn2c(Cl)c(/C=N/NC(=O)c3cccc(O)c3)sc2=O)c1	16.3
CC1CCN(CCCNC(=O)C2CC(=O)N(CCc3ccccc3)C2)CC1 (centres unmarked)	6.56
Cc1ccc(N(CC(O)CN2C(=O)NC(C)(C)C2=O)S(=O)(=O)c2ccc([N+](=O)[O-])cc2)cc1 (centres unmarked)	-2.02
Cc1c(Cl)cccc1NC(=S)NCc1cccs1	9.12
Cc1ccc(CNC(=O)C2CCN(S(=O)(=O)c3ccc4nc5c(c(C(=O)O)c4c3)CC(C)CC5)CC2)cc1 (centres unmarked)	-17.8
O=C(O)c1nc(-c2ccccc2)n(-c2ccc(Cl)cc2)n1	11.2
O=C(CCN1CCOCC1)Nc1c(-c2ccccc2)c2cc(Br)ccc2[nH]c1=O	-5.72
O=c1c2ccsc2ncn1Cc1ccccc1F	0.665
CN(CC(=O)Nc1cccc(F)c1)C(=O)c1ccc(NC2CC2)c([N+](=O)[O-])c1	-23.5
Cc1cc(=O)oc2cc3c(cc12)OCCN3	10.6
O=C(CSc1nnc(NC(=O)C2CC2)s1)Nc1ccccc1Cl	14.8
CS(=O)(=O)c1sc(C(=O)NC(=S)Nc2ccc(OC(F)(F)F)cc2)c2c1C=CCC2	9.45

Structure (SMILES)	hERG current change (%, negative = inhibition) at 1uM [%]
O=S(=O)(Cc1cc(Cl)nc(-c2ccccc2)n1)c1ccccc1	8.68
Cc1ccc(N2C(=O)C(Cl)=C(N3CCOCC3)C2=O)c(C)c1	17.3
O=C(NCCc1ccccc1Cl)c1cc(COc2ccc(F)cc2F)on1	11.1
COc1ccc(-c2cc(=O)oc(-c3cccc(C)c3)n2)cc1	13.7
CCc1nc(-c2ccccc2O)n(-c2ccccc2)n1	9.75
Cc1ccc(OCCCC(=O)Nc2ccc(S(=O)(=O)Nc3cc(C)on3)cc2)cc1	12.2
CCN(CC)C1=NC(=[N+](CC)CC)c2ccccc21.[O-][Cl+3]([O-])([O-])[O-]	-7.91
O=C(O)C1[C@H]2C(=O)N(C3CCCC3)C[C@]23C=C[C@H]1O3 (some centres unmarked)	0.602
Cc1ccc(C(=O)COC(=O)c2cc(Cl)ccc2O)cc1[N+](=O)[O-]	12.3
CCn1c(SCC(=O)Nc2cc(C)on2)nc2c(c1=O)SCC2	12.7
COc1ccc(N2CCN(C(=O)C3CC(=O)N(c4ccc(C)cc4)C3)CC2)cc1 (centres unmarked)	-8.62
Cc1ccc(CNC(=O)c2ccc(N3CCC4(CC3)CC(c3cccc(Br)c3)=NO4)c(NC(=O)c3ccccc3)c2)cc1	13.2
COc1ccc(N(CC(=O)Nc2ccccc2C)S(=O)(=O)c2ccccc2[N+](=O)[O-])c(OC)c1	0.716
O=Cc1cc(-c2ccccc2)[nH]c1-c1ccccc1	16.2
COc1cc(-c2c(-c3ccc4c(c3)OCO4)noc2-c2ccsc2)ccc1F	5.96
COC1CCN(C(=O)CC2C(=O)NCCN2CC2CCCCC2)CC1 (centres unmarked)	9.82
N#CC1=C(N)N2C(=C(C#N)C1c1cccc(Br)c1)Nc1ccccc12 (centres unmarked)	8.63
COc1ccc(CN2CC(C(=O)NCCc3ccccc3)CC2=O)cc1 (centres unmarked)	-25.9
